Results taken from PubChem BioAssay AID624202 (National Center for Advancing Translational Sciences (NCATS), 2012).
In all, about 380,000 compounds went through this assay and about 4,000 (1.1%) were called active. The shares of active, inactive and inconclusive entries below differ from those in the screen. Calls follow the shape of the dose curve; as a rule, active = well fitted activation curve with a large enough effect; inconclusive = small, poorly fitted or top-dose-only effect; inactive = no such curve, though single readings can be large or run the other way. Where the call is inconclusive, the potency comes from a doubtful curve fit.

Experiment: qHTS Assay to Identify Small Molecule Activators of BRCA1 Expression; also: nearly all actives have a fitted effect of over 80% in size
Details: MCF7-BRCA1-FFLuc reporter, luminescence, 48 h; activation: at 46.1 µM (top of the series), scaled: vehicle 0%, 10 µM genistein 100% unless noted
Method in brief: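 Cells: MCF7-BRCA1-FFLuc, 2000/well. Exposure: 48 h, 37 °C, 5% CO2. Read: luminescence, 15 min post-substrate. Controls: genistein 10 microM (maximal activation), DMSO (neutral).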
Tags tell the direction and shape of the fitted curve.

Row | Structure (SMILES) | Potency | activation
1 | Cc1ccccc1C(=O)NC1CCCCCCC1 | inconclusive: 15.8 µM [activator, partial curve, poor fit] | 
2 | COc1cccc(NC(=O)c2cccs2)c1 | inconclusive: 25.1 µM [activator, single point] | 
3 | COc1nc(NCc2cccnc2)nc(NC2CCCCC2)n1 | inconclusive: 11.2 µM [activator, partial curve, poor fit] | 
4 | COC(=O)C1=C(C)NC(C)=C(C(=O)OC)C1c1ccccc1[N+](=O)[O-] | inactive | 
5 | CC(=O)NC(c1ccccc1)c1nc(-c2cccc(C(=O)O)c2)cs1 (stereo unspecified) | inconclusive: 12.6 µM [activator, partial curve, poor fit] | 
6 | CCC(=O)N(CC)c1nc(-c2ccc(OC)cc2)cs1 | active: 11.2 µM | 
7 | Cc1cc(Cl)ccc1OCCCC(=O)N1CCCCC1 | inconclusive: 14.1 µM [activator, partial curve, poor fit] | 
8 | Cc1nn(-c2ccccc2)c(Cl)c1C(=O)N1CCN(c2ncnc3c2cnn3-c2ccccc2)CC1 |  | inactive: -83.3%
9 | O=C(NCCNc1ccc(Cl)cc1[N+](=O)[O-])c1ccccc1F | inconclusive: 10 µM [activator, partial curve, poor fit] | 
10 | COc1ccc(C(=O)Cn2cnc3ccccc3c2=O)cc1 | inconclusive: 12.6 µM [activator, partial curve, poor fit] | 
11 | O=C(NC(=S)Nc1cccc([N+](=O)[O-])c1)c1ccccc1 | active: 11.2 µM | 
12 | O=C(OCC(=O)N1CCCC1)c1ccccc1O | active: 20 µM | 
13 | CCN(CC)S(=O)(=O)c1ccc(C(=O)Nc2nnc(C(C)C)s2)cc1 |  | inactive: 37.4%
14 | Cc1n[nH]c(=S)n1/N=C/c1ccc(OCc2ccc(Cl)cc2)cc1 | active: 5.01 µM | 
15 | O=C1C(Cl)=C(NCc2cccnc2)C(=O)c2ccccc21 |  | inactive: -92.7%
16 | O=[N+]([O-])c1ccc2nc(-c3ccccn3)[nH]c2c1 | inconclusive: 1.58 µM [activator, partial curve, poor fit] | 
17 | c1ccc(OCCNc2ccn3nc(-c4ccccc4)cc3n2)cc1 | inconclusive: 10 µM [activator, partial curve, poor fit] | 
18 | COc1cc(NC(=O)c2c(OC)cccc2OC)ccc1NC(=O)c1cc2ccccc2o1 | active: 11.2 µM | 
19 | OC(Cc1ccc2ccccc2n1)c1c(Cl)cccc1Cl (stereo unspecified) |  | inactive: 33.2%
20 | COc1cccc(C2=CC(=O)C[C@H](c3ccc4c(c3)OCO4)C2)c1OC | inconclusive: 12.6 µM [activator, partial curve, poor fit] | 
21 | Cc1ccnc(NC(c2ccccc2F)c2ccc3cccnc3c2O)c1 (stereo unspecified) |  | inactive: -70.1%
22 | COc1ccc(C2=CC(=O)CC(c3ccc(F)cc3)C2)cn1 (stereo unspecified) |  | inactive: -12.8%
23 | Cc1ccn2cc(CSc3ccccc3N)nc2c1 | inconclusive: 2.82 µM [activator, full curve, poor fit] | 
24 | O=[N+]([O-])c1ccc(NN=Cc2ccc(O)cc2)nc1 | inconclusive: 1.58 µM [activator, partial curve, poor fit] | 
25 | CCc1ccc2nc(NC(=O)CN3C(=O)NC4(CCCC4)C3=O)sc2c1 | inconclusive: 3.55 µM [activator, partial curve, poor fit] | 
26 | O=c1c2ccccc2nc2ccc(N3CCOCC3)nn12 | inconclusive: 11.2 µM [activator, partial curve, poor fit] | 

Row | Structure (SMILES) | Potency | activation
27 | O=C1C2C(C(=O)N1/N=C/c1cccc([N+](=O)[O-])c1)C1C=CC2C12CC2 (stereo unspecified) | inconclusive: 11.2 µM [activator, partial curve, poor fit] | 
28 | CN(N=Nc1ccc([N+](=O)[O-])cc1)c1ccccc1 | active: 3.55 µM | 
29 | CN(Cc1ccccc1)c1nc(-c2ccc(F)cc2)cc(C(F)(F)F)n1 |  | inactive: -5.09%
30 | COc1ccc(NS(=O)(=O)c2ccc(O)c(C(=O)OCC(=O)N3CCCCC3)c2)cc1 |  | inactive: -1.67%
31 | O=[N+]([O-])c1ccc(N=NNc2ccc([N+](=O)[O-])cc2)cc1 | inconclusive: 3.55 µM [activator, partial curve, poor fit] | 
32 | CC(C)c1ccc(NC(=O)N2CCCC2C(=O)Nc2ccc(-n3cnnn3)cc2)cc1 (stereo unspecified) | inconclusive: 8.91 µM [activator, partial curve, poor fit] | 
33 | NC(=O)CSc1nc2c(c(=O)n1-c1ccccc1)C1(CCCCC1)Cc1ccccc1-2 |  | inactive: 0%
34 | CN(C)c1ccc(-c2ccc3ccccc3n2)cc1 |  | inactive: -14.7%
35 | O=C(CSc1nnc(-c2c[nH]c3ccccc23)o1)N1CCCCC1 | inconclusive: 15.8 µM [activator, partial curve, poor fit] | 
36 | COc1ccc(C(=O)Nc2ccc3c(c2)OCO3)cc1OC | inconclusive: 14.1 µM [activator, partial curve, poor fit] | 
37 | Clc1ccc(-c2noc(CN3CCOCC3)n2)cc1 | active: 7.94 µM | 
38 | COc1ccc(C(O)c2cnc(C)n2Cc2ccccc2)cc1 (stereo unspecified) |  | inactive: -25.2%
39 | CC(=O)Oc1ccc2c(c1)C(=O)c1ccccc1CO2 | inconclusive: 14.1 µM [activator, single point] | 
40 | CC1(C)CC(=Cc2cc(O)ccc2[N+](=O)[O-])C(=O)c2ccccc21 |  | inactive: -49.2%
41 | Cc1ccc(C(=O)n2c(N)nc3ccccc32)cc1 |  | inconclusive: -79.8% [activator]
42 | O=C1c2cccc(Cl)c2C(=O)N1c1ccccn1 |  | inactive: -4.69%
43 | c1ccc(CCc2nc(-c3cccnc3)no2)cc1 | active: 10 µM | 
44 | O=C(CSc1nc2ccccc2c(=O)n1NC(=O)c1ccccc1)c1ccc(Cl)cc1 | active: 14.1 µM | 
45 | COc1ccc2oc(C(=O)Nc3nccs3)c(C)c2c1 | inconclusive: 3.55 µM [activator, partial curve, poor fit] | 
46 | COc1ccc(OC)c(N2C(N)=NC(N)=NC23CCCC3)c1 |  | inactive: -13.5%
47 | Cc1cc(-c2ccc(C(=O)O)s2)cnc1N | active: 7.08 µM | 
48 | Cc1nc2c(-c3ccc(F)cc3)cnn2c(N)c1-c1ccccc1 |  | inactive: 4.17%
49 | N=C1/C(=C/c2ccc(OCc3ccccc3)cc2)C(=O)N=C2SC(CC(=O)N3CCOCC3)=NN12 | active: 14.1 µM | 
50 | COC(=O)c1[nH]c2ccc(C)cc2c1NC(=O)CN1CCCc2ccccc21 |  | inactive: -66.5%
51 | Cn1cc([N+](=O)[O-])c(C(=O)Nc2ccc3nc(-c4ccccc4)[nH]c3c2)n1 | active: 3.98 µM | 
52 | O=C(NCc1ccco1)c1ccc(-c2cccc(Cl)c2)o1 | inconclusive: 11.2 µM [activator, partial curve, poor fit] | 

Row | Structure (SMILES) | Potency | activation
53 | COc1ccc(C(=O)NCCC2=CCCCC2)cc1OC | inconclusive: 10 µM [activator, partial curve, poor fit] | 
54 | Clc1ccccc1-c1cc(COc2ccc3ccccc3c2)no1 | inconclusive: 22.4 µM [activator, single point] | 
55 | C/C(=N\NC(=S)NCC(C)(C)C)c1cc(F)cc(F)c1O |  | inactive: -58.6%
56 | Nc1nc2c(-c3ccc(Br)cc3)nnn2c2ccccc12 | inconclusive: 1.26 µM [activator, partial curve, poor fit] | 
57 | COc1ccc(-c2cc(-c3ccccc3)no2)cc1 | inconclusive: 3.16 µM [activator, partial curve, poor fit] | 
58 | CCS(=O)(=O)Nc1cccc(C2=NN(S(=O)(=O)c3ccccc3)C(c3ccco3)C2)c1 (stereo unspecified) | inconclusive: 25.1 µM [activator, single point] | 
59 | O=c1oc2cc(Cl)ccc2n1CSc1nc2ccccc2s1 | active: 7.94 µM | 
60 | O=C(Nc1ccc(Cl)cc1)Nc1nnc(CSCc2ccc(Cl)cc2)s1 |  | inactive: -29.1%
61 | COC(=O)c1c(C)oc2ccc(N(C(=O)c3ccncc3)S(=O)(=O)c3ccc(C)cc3C)cc12 |  | inactive: -80.1%
62 | O=C(O)c1cccc(COc2ccccc2Cl)c1 |  | inconclusive: -88.2% [activator]
63 | O=C(CN(C(=O)CCC(=O)Nc1ccccn1)c1cccc(F)c1)NCc1ccc2c(c1)OCO2 |  | inactive: -15.3%
64 | Clc1ccc(N/N=C/c2cccnc2)cc1 | inconclusive: 11.2 µM [activator, partial curve, poor fit] | 
65 | O=C(c1cc(-c2ccc(Cl)cc2Cl)on1)N1CCOCC1 |  | inconclusive: -16.2% [activator]
66 | CC(C)(C)C(=O)CSc1ncnc2c1cnn2-c1ccccc1 | inconclusive: 1.78 µM [activator, full curve, poor fit] | 
67 | O=C(c1cnn2ccccc12)N1CCCc2ccccc21 |  | inactive: 2.98%
68 | O=C(O)c1cccc(-c2ccc(/C=C3/SC(=Nc4ccccc4)N(Cc4cccnc4)C3=O)o2)c1 | inconclusive: 11.2 µM [activator, partial curve, poor fit] | 
69 | C[C@H](CO)N1C[C@H](C)[C@@H](CN(C)C(=O)NC2CCCCC2)Oc2c(NC(=O)C3CC3)cccc2C1=O |  | inactive: 1.07%
70 | O=c1/c(=C\c2cccn2-c2ccccc2)sc2nc3ccccc3n12 | inconclusive: 12.6 µM [activator, partial curve, poor fit] | 
71 | COc1ccc(NC(=O)N2CCc3ccccc3C2)cc1 | active: 7.94 µM | 
72 | COc1ccc(NC(=O)Cn2c(=O)n(CCc3ccccc3)c(=O)c3c4c(sc32)CCCC4)cc1 |  | inactive: 8.64%
73 | COc1ccccc1C(=O)NNC(=O)c1nn(Cc2ccccc2)c(=O)c2ccccc12 |  | inactive: -69.5%
74 | O=C(COc1cc(F)ccc1[N+](=O)[O-])Nc1ccc(N2CCOCC2)cc1 |  | inactive: -4.87%
75 | C/C(=N\NC(=O)c1sccc1C)c1ccncc1 | inconclusive: 3.98 µM [activator, full curve, poor fit] | 
76 | Cc1ncsc1C(=O)Nc1nc2c(s1)CC(C)CC2 (stereo unspecified) | inconclusive: 2 µM [activator, partial curve, poor fit] | 
